Source: paper PMC5892938
The other results are listed elsewhere or left out. At the low end of the ranking the order means little.
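Further: DESeq read counts versus GST-SBP nonspecific binding control pulldown.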

What follows are sequences tested against GST-SBP-SLBP (stem-loop binding protein) (UniProt Q14493) (assay: targeted RNA Bind-n-Seq). Conditions: RBNS binding buffer: 25 mM Tris pH 7.5, 150 mM KCl, 3 mM MgCl2, 0.1% Tween, 0.5 mg/mL BSA, 1 mM DTT; 27 nM protein, 750 pM RNA pool; temperature not stated; high values mean tight binding.
Sequence “GGUCACGUCUCAAUCAACUCAGUCUCCAGGGAAAGCCCUGGUUUUUUCAACAGCUCGCAGUCAAG” has a binding signal (log2 fold change) of -0.0798.
Sequence “GGUCACGUCUCAAUCAACUCAUCUCCAGGAGUUUACUCCUGCAUAUUCAACAGCUCGCAGUCAAG” has a binding signal (log2 fold change) of 0.229.
Sequence “GGUCACGUCUCAAUCAACUCUAUAGAGGGGGGGAAAACCCCUUUACCCUCACAUUCAACAGCUCGCAGUCAAG” has a binding signal (log2 fold change) of -0.213.
“GGUCACGUCUCAAUCAACUCAAUUUCAGGAGUUUGCUCCUGUAUAUUCAACAGCUCGCAGUCAAG” gave a binding signal (log2 fold change) of -0.0421.
“GGUCACGUCUCAAUCAACUCUUCUUCCAGGGAAAUCCCUGGUAAAUUCAACAGCUCGCAGUCAAG” was tested, and the binding signal (log2 fold change) was -0.242.
In the case of “GGUCACGUCUCAAUCAACUCAUGUCCAGGAGUUUUCUCCUGCUUUCUCAACAGCUCGCAGUCAAG”, the binding signal (log2 fold change) is reported as -0.123.
With “GGUCACGUCUCAAUCAACUCUCAAGAGGGGGGGAAAACCCCUUUACCCUCCGUAUCAACAGCUCGCAGUCAAG” the binding signal (log2 fold change) was -0.216.
“GGUCACGUCUCAAUCAACUCUUCUCCAGGAGUUUACUCCUGUUUUCUCAACAGCUCGCAGUCAAG” showed a binding signal (log2 fold change) of -0.142.
In the case of “GGUCACGUCUCAAUCAACUCCUACGAGGGGGGGAAAACCCCUUUACCCUCAAAAUCAACAGCUCGCAGUCAAG”, the binding signal (log2 fold change) is reported as -0.15.
“GGUCACGUCUCAAUCAACUCCUAAGAGGGGGGGAAAACCCCUUUGCCCUCAUCUUCAACAGCUCGCAGUCAAG” gave a binding signal (log2 fold change) of -0.166.
“GGUCACGUCUCAAUCAACUCUAAAGAGGGGGGGAAAACCCCUUUACCCUCGUACUCAACAGCUCGCAGUCAAG” was tested, and the binding signal (log2 fold change) was 0.194.
“GGUCACGUCUCAAUCAACUCAAUCUCCAGGGAAAACCCUGGUUUACUCAACAGCUCGCAGUCAAG” was tested, and the binding signal (log2 fold change) was -0.0691.
With “GGUCACGUCUCAAUCAACUCAUCCCCAGGAGUUUUCUCCUGCAUUCUCAACAGCUCGCAGUCAAG” the binding signal (log2 fold change) was 0.11.
“GGUCACGUCUCAAUCAACUCUUUUCCAGGAGUUUUCUCCUGCAUACUCAACAGCUCGCAGUCAAG” gave a binding signal (log2 fold change) of -0.00321.
Work on “GGUCACGUCUCAAUCAACUCCUAUGAGGGGGGGAAAACCCCUUUACCCUCCAAUUCAACAGCUCGCAGUCAAG” yielded a binding signal (log2 fold change) of -0.335.
“GGUCACGUCUCAAUCAACUCUUAAGAGGGGGGGAAAACCCCUUUACCCUCAAUGUCAACAGCUCGCAGUCAAG” was tested, and the binding signal (log2 fold change) was -0.0691.
Sequence “GGUCACGUCUCAAUCAACUCAUUCCCAGGAGUUUACUCCUGCUUAUUCAACAGCUCGCAGUCAAG” has a binding signal (log2 fold change) of -0.123.
“GGUCACGUCUCAAUCAACUCCCACGAGGGGGGGAAAACCCCUUUACCCUCAAACUCAACAGCUCGCAGUCAAG” showed a binding signal (log2 fold change) of -0.2.
In the case of “GGUCACGUCUCAAUCAACUCAACUUCCAGGGAAACCCCUGGUUAACUCAACAGCUCGCAGUCAAG”, the binding signal (log2 fold change) is reported as 0.279.
Sequence “GGUCACGUCUCAAUCAACUCAUCUUCCAGGGAAAGCCCUGGUUUUCUCAACAGCUCGCAGUCAAG” has a binding signal (log2 fold change) of -0.0852.
With “GGUCACGUCUCAAUCAACUCAUCUCCCAGGGAAACCCCUGGCAUAUUCAACAGCUCGCAGUCAAG” the binding signal (log2 fold change) was -0.07.
Sequence “GGUCACGUCUCAAUCAACUCUUCUUCCAGGGAAAGCCCUGGCAUUUUCAACAGCUCGCAGUCAAG” has a binding signal (log2 fold change) of -0.0671.
“GGUCACGUCUCAAUCAACUCUUCCUCAGGAGUUUACUCCUGCUAUCUCAACAGCUCGCAGUCAAG” gave a binding signal (log2 fold change) of 0.105.
“GGUCACGUCUCAAUCAACUCUACUCCCAGGGAAAGCCCUGGUAUACUCAACAGCUCGCAGUCAAG” gave a binding signal (log2 fold change) of 0.176.
“GGUCACGUCUCAAUCAACUCAUCUUCCAGGGAAACCCCUGGCAUUCUCAACAGCUCGCAGUCAAG” gave a binding signal (log2 fold change) of -0.344.
“GGUCACGUCUCAAUCAACUCACUAGAGGGGGGGAAAACCCCUUUACCCUCAAAAUCAACAGCUCGCAGUCAAG” was tested, and the binding signal (log2 fold change) was 0.183.
Sequence “GGUCACGUCUCAAUCAACUCUACUCCAGGAGUUUUCUCCUGCAAACUCAACAGCUCGCAGUCAAG” has a binding signal (log2 fold change) of 0.0589.
“GGUCACGUCUCAAUCAACUCCCUAGAGGGGGGGAAAACCCCUUUGCCCUCCAAAUCAACAGCUCGCAGUCAAG” gave a binding signal (log2 fold change) of -0.315.
“GGUCACGUCUCAAUCAACUCUUAAGAGGGGGGGAAAACCCCUUUACCCUCAUUCUCAACAGCUCGCAGUCAAG” was tested, and the binding signal (log2 fold change) was 0.26.
Sequence “GGUCACGUCUCAAUCAACUCUACUCCCAGGGAAAGCCCUGGUUAACUCAACAGCUCGCAGUCAAG” has a binding signal (log2 fold change) of -0.236.
“GGUCACGUCUCAAUCAACUCAGUUCCAGGAGUUUUCUCCUGUUUAUUCAACAGCUCGCAGUCAAG” showed a binding signal (log2 fold change) of -0.0683.
Work on “GGUCACGUCUCAAUCAACUCUUCUUCAGGAGUUUUCUCCUGCAAACUCAACAGCUCGCAGUCAAG” yielded a binding signal (log2 fold change) of 0.277.
For “GGUCACGUCUCAAUCAACUCAACGCCAGGAGUUUUCUCCUGUUUUCUCAACAGCUCGCAGUCAAG”, the binding signal (log2 fold change) was -0.121.
“GGUCACGUCUCAAUCAACUCUUUCGAGGGGGGGAAAACCCCUUUACCCUCUACAUCAACAGCUCGCAGUCAAG” was tested, and the binding signal (log2 fold change) was -0.492.
With “GGUCACGUCUCAAUCAACUCUUCAGAGGGGGGGAAAACCCCUUUACCCUCAUAAUCAACAGCUCGCAGUCAAG” the binding signal (log2 fold change) was -0.114.
Work on “GGUCACGUCUCAAUCAACUCAUAAGAGGGGGGGAAAACCCCUUUGCCCUCAUCCUCAACAGCUCGCAGUCAAG” yielded a binding signal (log2 fold change) of 0.0533.
“GGUCACGUCUCAAUCAACUCAUUUCCCAGGGAAAUCCCUGGUAUUCUCAACAGCUCGCAGUCAAG” gave a binding signal (log2 fold change) of 0.173.
Work on “GGUCACGUCUCAAUCAACUCUAGUCCCAGGGAAACCCCUGGCAAUUUCAACAGCUCGCAGUCAAG” yielded a binding signal (log2 fold change) of -0.0101.
“GGUCACGUCUCAAUCAACUCAAGUCCCAGGGAAAUCCCUGGCAAUUUCAACAGCUCGCAGUCAAG” gave a binding signal (log2 fold change) of -0.124.
“GGUCACGUCUCAAUCAACUCAUCUUCCAGGGAAAACCCUGGCAAAUUCAACAGCUCGCAGUCAAG” gave a binding signal (log2 fold change) of 0.0663.
“GGUCACGUCUCAAUCAACUCUAUCGCAGGAGUUUUCUCCUGGUUUCUCAACAGCUCGCAGUCAAG” gave a binding signal (log2 fold change) of 0.141.
For “GGUCACGUCUCAAUCAACUCUAUCCCCAGGGAAAUCCCUGGUAUUCUCAACAGCUCGCAGUCAAG”, the binding signal (log2 fold change) was -0.267.
With “GGUCACGUCUCAAUCAACUCACACGAGGGGGGGAAAACCCCUUUACCCUCAUCUUCAACAGCUCGCAGUCAAG” the binding signal (log2 fold change) was -0.0529.
“GGUCACGUCUCAAUCAACUCAUCGCCAGGAGUUUACUCCUGCAUUUUCAACAGCUCGCAGUCAAG” gave a binding signal (log2 fold change) of 0.0293.
Work on “GGUCACGUCUCAAUCAACUCUUCCCCCAGGGAAACCCCUGGUUUUUUCAACAGCUCGCAGUCAAG” yielded a binding signal (log2 fold change) of -0.186.
“GGUCACGUCUCAAUCAACUCAACUCCAGGAGUUUGCUCCUGUAUUCUCAACAGCUCGCAGUCAAG” was tested, and the binding signal (log2 fold change) was 0.00259.
“GGUCACGUCUCAAUCAACUCAUCGUCAGGAGUUUCCUCCUGUAUUUUCAACAGCUCGCAGUCAAG” gave a binding signal (log2 fold change) of -0.0746.
